This is one part of the list. The full chains were built here from the parent and the listed change. Inactive controls read about 0.05.
B1: TEV protease; numbered along this chain (parent)
chain: MGESLFKGPRDYNPISSSICHLTNESDGHTTSLYGIGFGPFIITNKHLFRRNNGTLVVQSLHGVFKVKDTTTLQQHLVDGRDMIIIRMPKDFPPFPQKLKFREPQREERICLVTTNFQTKSMSSMVSDTSCTFPSGDGIFWKHWIQTKDGQCGSPLVSTRDGFIVGIHSASNFTNTNNYFTSVPKNFMELLTNQEAQQWVSGWRLNADSVLWGGHKVFMVKPEEPFQPVKEATQL

Variants of: B1
Test: raw area under fraction-flipped curve 0-4 h after induction (AUC4h, not background-subtracted), DNA-recorder readout of cleavage of the substrate (dimensionless); higher = more cleavage of the substrate by the protease variant
Settings: temperature: 34 °C; time window: 0-4 h after rhamnose induction
Method: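 In vivo DNA recorder in E. coli TOP10(DE3) ΔrhaA at 34 °C. Each TEVp single-site mutant (parent TEVp 0) is paired with a single-site variant of the 7-mer TEVs (canonical ENLYFQ|S). The substrate sits between flexible linkers in a Bxb1-sfGFP-TEVs-SsrA fusion, so cleavage stabilises Bxb1 and speeds flipping of a recombination array, read by NGS. The value is the raw area under the fraction-flipped curve over 0-4 h after rhamnose induction (AUC4h), with ≥20 reads per time point. It is not background-subtracted; inactive controls average about 0.047.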
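Note: Bxb1 expression induced with 0.2% (w/v) L-rhamnose at OD600 near 0.5, cultures sampled hourly, flipped fraction per protease–substrate barcode pair counted by paired-end Illumina sequencing.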

Variant | area with substrate ENAYFQS | area with substrate ENCYFQS | area with substrate ENDYFQS | area with substrate ENFYFQS | area with substrate ENHYFQS | area with substrate ENKYFQS | area with substrate ENMYFQS | area with substrate ENNYFQS | area with substrate ENPYFQS | area with substrate ENQYFQS | area with substrate ENRYFQS | area with substrate ENSYFQS | area with substrate ENTYFQS | area with substrate ENYYFQS | area with substrate ENEYFQS | area with substrate ENGYFQS | area with substrate ENIYFQS | area with substrate ENVYFQS | area with substrate ENWYFQS
Q146R | 0.0503 | 0.0674 | 0.0538 | 0.057 | 0.0772 | 0.0667 | 0.0661 | 0.0714 | 0.0396 | 0.0558 | 0.0684 | 0.0572 | 0.0779 | 0.0658 |  |  |  |  | 
G162M | 0.0553 | 0.0611 | 0.0561 | 0.0477 | 0.0687 |  | 0.0715 | 0.0583 | 0.0212 | 0.0637 |  | 0.0989 | 0.0653 | 0.0672 | 0.0482 | 0.046 | 0.088 | 0.0611 | 
T132V | 0.0726 | 0.0632 | 0.0633 | 0.0696 | 0.0606 | 0.059 | 0.0713 | 0.0567 | 0.0553 | 0.0596 |  | 0.0553 | 0.0669 | 0.0613 | 0.0753 | 0.059 | 0.109 | 0.0711 | 
C152S | 0.0546 |  | 0.0554 |  | 0.0598 | 0.0564 | 0.0576 | 0.074 |  | 0.0639 | 0.0407 | 0.069 |  | 0.0496 | 0.0636 | 0.0665 |  | 0.0654 | 
M125N | 0.0641 | 0.0466 | 0.0671 | 0.0662 | 0.0661 | 0.0626 | 0.0787 | 0.0597 | 0.0578 | 0.0571 | 0.0585 | 0.0624 | 0.0611 | 0.0545 | 0.0666 | 0.074 |  | 0.0886 | 
M125V | 0.0681 | 0.0697 | 0.0647 |  | 0.0575 |  |  | 0.0605 | 0.0626 | 0.0634 | 0.0704 |  |  | 0.0803 | 0.0648 | 0.0687 |  | 0.0845 | 
M125T | 0.0587 | 0.0652 | 0.0641 | 0.0636 | 0.0651 | 0.0634 | 0.0689 | 0.068 | 0.0581 | 0.0616 | 0.0539 | 0.0688 | 0.0603 |  | 0.0573 | 0.0566 | 0.102 | 0.0714 | 0.0656
W141M | 0.0548 | 0.0568 | 0.0591 | 0.0568 |  |  |  | 0.0662 | 0.0605 | 0.0531 | 0.0606 | 0.0581 | 0.0432 | 0.0533 | 0.0515 |  | 0.0713 | 0.0674 | 
F133E | 0.0715 |  | 0.0659 | 0.0754 | 0.0544 |  | 0.0939 | 0.0612 |  | 0.0645 |  | 0.066 | 0.0738 | 0.0718 | 0.0541 | 0.0683 | 0.0982 | 0.0937 | 
I145F | 0.0352 | 0.0627 |  | 0.0742 | 0.0574 |  |  | 0.0631 | 0.0539 | 0.0527 |  | 0.0619 |  | 0.0371 | 0.0563 |  | 0.0912 |  | 
G150R | 0.0655 | 0.0571 | 0.0616 | 0.0728 |  | 0.0638 | 0.0525 | 0.0598 |  | 0.0623 | 0.0522 | 0.0624 | 0.0619 | 0.0583 | 0.0626 | 0.0658 | 0.0611 | 0.0518 | 
G150K | 0.0723 |  | 0.0706 | 0.0533 | 0.0589 |  |  |  | 0.0517 | 0.0692 | 0.0711 | 0.0648 | 0.0534 | 0.0583 | 0.066 | 0.0652 |  | 0.0289 | 

— the supplement of paper PMC12217912
